Measured values as given in the supplement of paper PMC8728848.
This is one part of the list.

How the values were obtained:
Experiment in all cases: glycan array binding signal (z-score within array); higher = stronger binding
Conditions in all cases: glycan notation: IUPAC condensed, linker removed
[1] = target: Gal(a1-3)Gal(b1-3)GlcNAc
Summary of the method: (§1)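 From the Consortium for Functional Glycomics database, 3228 arrays were curated, keeping only those whose protein sequence was available. Binding is given as a within-array Z-score averaged across arrays sharing a protein sequence and across linkers. Negative Z-scores can be read as non-binding.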

[2] = target: Gal(a1-3)Gal(b1-3)GlcNAc(b1-2)Man
Summary of the method: as §1

[3] = target: Gal(a1-3)Gal(b1-3)GlcNAc(b1-2)Man(a1-3)[Gal(a1-3)Gal(b1-3)GlcNAc(b1-2)Man(a1-6)]Man(b1-4)GlcNAc(b1-4)GlcNAc
Summary of the method: as §1

[4] = target: Gal(a1-3)Gal(b1-3)GlcNAc(b1-3)GalNAc
Summary of the method: as §1

[5] = target: Gal(a1-3)Gal(b1-3)GlcNAc(b1-6)GalNAc
Summary of the method: as §1

[6] = target: Gal(a1-3)Gal(b1-3)[Fuc(a1-4)]GlcNAc(b1-2)Man(a1-3)[Gal(a1-3)Gal(b1-3)[Fuc(a1-4)]GlcNAc(b1-2)Man(a1-6)]Man(b1-4)GlcNAc(b1-4)GlcNAc
Summary of the method: as §1

[7] = target: Gal(a1-3)Gal(b1-4)Glc
Summary of the method: as §1

[8] = target: Gal(a1-3)Gal(b1-4)GlcNAc
Summary of the method: as §1

[9] = target: Gal(a1-3)Gal(b1-4)GlcNAc(b1-2)Man
Summary of the method: as §1

[10] = target: Gal(a1-3)Gal(b1-4)GlcNAc(b1-2)Man(a1-3)[Gal(a1-3)Gal(b1-4)GlcNAc(b1-2)Man(a1-6)]Man(b1-4)GlcNAc(b1-4)GlcNAc
Summary of the method: as §1

[11] = target: Gal(a1-3)Gal(b1-4)GlcNAc(b1-3)GalNAc
Summary of the method: as §1

[12] = target: Gal(a1-3)Gal(b1-4)GlcNAc(b1-6)GalNAc
Summary of the method: as §1

[13] = target: Gal(a1-3)Gal(b1-4)[Fuc(a1-3)]GlcNAc
Summary of the method: as §1

[14] = target: Gal(a1-3)Gal(b1-4)[Fuc(a1-3)]GlcNAc(b1-2)Man(a1-3)[Gal(a1-3)Gal(b1-4)[Fuc(a1-3)]GlcNAc(b1-2)Man(a1-6)]Man(b1-4)GlcNAc(b1-4)GlcNAc
Summary of the method: as §1

[15] = target: Gal(a1-3)GalNAc
Summary of the method: as §1

[16] = target: Gal(a1-3)[Gal(a1-4)]Gal(b1-4)GlcNAc
Summary of the method: as §1

[17] = target: Gal(a1-4)Gal(b1-3)GlcNAc(b1-2)Man(a1-3)[Gal(a1-4)Gal(b1-3)GlcNAc(b1-2)Man(a1-6)]Man(b1-4)GlcNAc(b1-4)GlcNAc
Summary of the method: as §1

[18] = target: Gal(a1-4)Gal(b1-4)Glc
Summary of the method: as §1

[19] = target: Gal(a1-4)Gal(b1-4)GlcNAc
Summary of the method: as §1

[20] = target: Gal(a1-4)Gal(b1-4)GlcNAc(b1-2)Man(a1-3)[Gal(a1-4)Gal(b1-4)GlcNAc(b1-2)Man(a1-6)]Man(b1-4)GlcNAc(b1-4)GlcNAc
Summary of the method: as §1

[21] = target: Gal(a1-4)Gal(b1-4)GlcNAc(b1-3)Gal(b1-4)Glc
Summary of the method: as §1

[22] = target: Gal(a1-4)GlcNAc
Summary of the method: as §1

[23] = target: Gal(a1-6)Glc
Summary of the method: as §1

[24] = target: Gal(b1-2)Gal
Summary of the method: as §1

[25] = target: Gal(b1-3)Gal
Summary of the method: as §1

[26] = target: Gal(b1-3)Gal(b1-4)GlcNAc
Summary of the method: as §1

[27] = target: Gal(b1-3)Gal(b1-4)GlcNAc(b1-2)Man(a1-3)[Gal(b1-3)Gal(b1-4)GlcNAc(b1-2)Man(a1-6)]Man(b1-4)GlcNAc(b1-4)GlcNAc
Summary of the method: as §1

[28] = target: Gal(b1-3)GalNAc
Summary of the method: as §1

[29] = target: Gal(b1-3)GalNAc(a1-3)[Fuc(a1-2)]Gal(b1-4)Glc
Summary of the method: as §1

[30] = target: Gal(b1-3)GalNAc(a1-3)[Fuc(a1-2)]Gal(b1-4)GlcNAc
Summary of the method: as §1

[31] = target: Gal(b1-3)GalNAc(b1-3)Gal
Summary of the method: as §1

[32] = target: Gal(b1-3)GalNAc(b1-3)Gal(a1-4)Gal(b1-4)Glc
Summary of the method: as §1

[33] = target: Gal(b1-3)GalNAc(b1-4)Gal(b1-4)Glc
Summary of the method: as §1

[34] = target: Gal(b1-3)GalNAc(b1-4)[Neu5Ac(a2-3)]Gal(b1-4)Glc
Summary of the method: as §1

[35] = target: Gal(b1-3)GlcNAc
Summary of the method: as §1

[36] = target: Gal(b1-3)GlcNAc(a1-3)Gal(b1-4)GlcNAc
Summary of the method: as §1

[37] = target: Gal(b1-3)GlcNAc(a1-6)Gal(b1-4)GlcNAc
Summary of the method: as §1

[38] = target: Gal(b1-3)GlcNAc(b1-2)Man
Summary of the method: as §1

[39] = target: Gal(b1-3)GlcNAc(b1-2)Man(a1-3)[Gal(b1-3)GlcNAc(b1-2)Man(a1-6)]Man(b1-4)GlcNAc(b1-4)GlcNAc
Summary of the method: as §1

[40] = target: Gal(b1-3)GlcNAc(b1-2)Man(a1-3)[Gal(b1-3)GlcNAc(b1-2)Man(a1-6)]Man(b1-4)GlcNAc(b1-4)[Fuc(a1-6)]GlcNAc
Summary of the method: as §1

[41] = target: Gal(b1-3)GlcNAc(b1-2)Man(a1-3)[GlcNAc(b1-4)][Gal(b1-3)GlcNAc(b1-2)Man(a1-6)]Man(b1-4)GlcNAc(b1-4)GlcNAc
Summary of the method: as §1

[42] = target: Gal(b1-3)GlcNAc(b1-2)[Gal(b1-3)GlcNAc(b1-6)]Man(a1-6)[Gal(b1-3)GlcNAc(b1-2)Man(a1-3)]Man(b1-4)GlcNAc(b1-4)GlcNAc
Summary of the method: as §1

[43] = target: Gal(b1-3)GlcNAc(b1-3)Gal(b1-3)GlcNAc
Summary of the method: as §1

[44] = target: Gal(b1-3)GlcNAc(b1-3)Gal(b1-4)Glc
Summary of the method: as §1

[45] = target: Gal(b1-3)GlcNAc(b1-3)Gal(b1-4)GlcNAc
Summary of the method: as §1

[46] = target: Gal(b1-3)GlcNAc(b1-3)Gal(b1-4)GlcNAc(b1-2)Man(a1-3)[Gal(b1-3)GlcNAc(b1-3)Gal(b1-4)GlcNAc(b1-2)Man(a1-6)]Man(b1-4)GlcNAc(b1-4)GlcNAc
Summary of the method: as §1

[47] = target: Gal(b1-3)GlcNAc(b1-3)Gal(b1-4)GlcNAc(b1-2)[Gal(b1-3)GlcNAc(b1-3)Gal(b1-4)GlcNAc(b1-6)]Man(a1-6)[Gal(b1-3)GlcNAc(b1-3)Gal(b1-4)GlcNAc(b1-2)Man(a1-3)]Man(b1-4)GlcNAc(b1-4)[Fuc(a1-6)]GlcNAc
Summary of the method: as §1

[48] = target: Gal(b1-3)GlcNAc(b1-3)Gal(b1-4)GlcNAc(b1-3)Gal(b1-4)GlcNAc(b1-2)[Gal(b1-3)GlcNAc(b1-3)Gal(b1-4)GlcNAc(b1-3)Gal(b1-4)GlcNAc(b1-6)]Man(a1-6)[Gal(b1-3)GlcNAc(b1-3)Gal(b1-4)GlcNAc(b1-3)Gal(b1-4)GlcNAc(b1-2)Man(a1-3)]Man(b1-4)GlcNAc(b1-4)[Fuc(a1-6)]GlcNAc
Summary of the method: as §1

[49] = target: Gal(b1-3)GlcNAc(b1-3)Gal(b1-4)GlcNAc(b1-6)[Gal(b1-3)GlcNAc(b1-3)]Gal(b1-4)Glc
Summary of the method: as §1

[50] = target: Gal(b1-3)GlcNAc(b1-3)Gal(b1-4)[Fuc(a1-3)]GlcNAc
Summary of the method: as §1

[51] = target: Gal(b1-3)GlcNAc(b1-3)Gal(b1-4)[Fuc(a1-3)]GlcNAc(b1-6)[Gal(b1-3)GlcNAc(b1-3)]Gal(b1-4)Glc
Summary of the method: as §1

[52] = target: Gal(b1-3)GlcNAc(b1-3)GalNAc
Summary of the method: as §1

[53] = target: Gal(b1-3)GlcNAc(b1-6)Gal(b1-4)GlcNAc
Summary of the method: as §1

[54] = target: Gal(b1-3)GlcNAc(b1-6)GalNAc
Summary of the method: as §1

[55] = target: Gal(b1-3)GlcNAc(b1-6)[Gal(b1-3)]GalNAc
Summary of the method: as §1

[56] = target: Gal(b1-3)GlcNAc6S
Summary of the method: as §1

[57] = target: Gal(b1-3)[Fuc(a1-4)]GlcNAc
Summary of the method: as §1

[58] = target: Gal(b1-3)[Fuc(a1-4)]GlcNAc(b1-2)Man
Summary of the method: as §1

[59] = target: Gal(b1-3)[Fuc(a1-4)]GlcNAc(b1-2)Man(a1-3)[Gal(b1-3)[Fuc(a1-4)]GlcNAc(b1-2)Man(a1-6)]Man(b1-4)GlcNAc(b1-4)GlcNAc
Summary of the method: as §1

[60] = target: Gal(b1-3)[Fuc(a1-4)]GlcNAc(b1-2)Man(a1-3)[Gal(b1-3)[Fuc(a1-4)]GlcNAc(b1-2)Man(a1-6)]Man(b1-4)GlcNAc(b1-4)[Fuc(a1-6)]GlcNAc
Summary of the method: as §1

B1: Siglec-F (Mus musculus), Q920G3 (protein)
chain: MRWAWLLPLLWAGCLATDGYSLSVTGSVTVQEGLCVFVACQVQYPNSKGPVFGYWFREGANIFSGSPVATNDPQRSVLKEAQGRFYLMGKENSHNCSLDIRDAQKIDTGTYFFRLDGSVKYSFQKSMLSVLVIALTEVPNIQVTSTLVSGNSTKLLCSVPWACEQGTPPIFSWMSSALTSLGHRTTLSSELNLTPRPQDNGTNLTCQVNLPGTGVTVERTQQLSVIYAPQKMTIRVSWGDDTGTKVLQSGASLQIQEGESLSLVCMADSNPPAVLSWERPTQKPFQLSTPAELQLPRAELEDQGKYICQAQNSQGAQTASVSLSIRSLLQLLGPSCSFEGQGLHCSCSSRAWPAPSLRWRLGEGVLEGNSSNGSFTVKSSSAGQWANSSLILSMEFSSNHRLSCEAWSDNRVQRATILLVSGPKVSQAGKSETSRGTVLGAIWGAGLMALLAVCLCLIFFTVKVLRKKSALKVAATKGNHLAKNPASTINSASITSSNIALGYPIQGHLNEPGSQTQKEQPPLATVPDTQKDEPELHYASLSFQGPMPPKPQNTEAMKSVYTEIKIHKC
glycan array binding signal (z-score) [1]: -0.111
glycan array binding signal (z-score) [2]: -0.106
glycan array binding signal (z-score) [3]: -0.044
glycan array binding signal (z-score) [4]: -0.004
glycan array binding signal (z-score) [5]: -0.127
glycan array binding signal (z-score) [6]: 0.029
glycan array binding signal (z-score) [7]: -0.117
glycan array binding signal (z-score) [8]: -0.12
glycan array binding signal (z-score) [9]: -0.16
glycan array binding signal (z-score) [10]: 0.127
glycan array binding signal (z-score) [11]: -0.073
glycan array binding signal (z-score) [12]: -0.146
glycan array binding signal (z-score) [13]: -0.123
glycan array binding signal (z-score) [14]: -0.109
glycan array binding signal (z-score) [15]: -0.12
glycan array binding signal (z-score) [16]: 0.037
glycan array binding signal (z-score) [17]: 0.083
glycan array binding signal (z-score) [18]: -0.107
glycan array binding signal (z-score) [19]: -0.102
glycan array binding signal (z-score) [20]: -0.066
glycan array binding signal (z-score) [21]: -0.118
glycan array binding signal (z-score) [22]: -0.131
glycan array binding signal (z-score) [23]: -0.1
glycan array binding signal (z-score) [24]: -0.113
glycan array binding signal (z-score) [25]: -0.118
glycan array binding signal (z-score) [26]: -0.12
glycan array binding signal (z-score) [27]: -0.089
glycan array binding signal (z-score) [28]: -0.119
glycan array binding signal (z-score) [29]: -0.128
glycan array binding signal (z-score) [30]: -0.114
glycan array binding signal (z-score) [31]: -0.136
glycan array binding signal (z-score) [32]: -0.114
glycan array binding signal (z-score) [33]: -0.124
glycan array binding signal (z-score) [34]: -0.109
glycan array binding signal (z-score) [35]: -0.12
glycan array binding signal (z-score) [36]: -0.133
glycan array binding signal (z-score) [37]: -0.057
glycan array binding signal (z-score) [38]: -0.125
glycan array binding signal (z-score) [39]: -0.056
glycan array binding signal (z-score) [40]: -0.082
glycan array binding signal (z-score) [41]: 0.011
glycan array binding signal (z-score) [42]: -0.01
glycan array binding signal (z-score) [43]: -0.113
glycan array binding signal (z-score) [44]: -0.13
glycan array binding signal (z-score) [45]: -0.132
glycan array binding signal (z-score) [46]: -0.01
glycan array binding signal (z-score) [47]: 0.257
glycan array binding signal (z-score) [48]: -0.038
glycan array binding signal (z-score) [49]: -0.117
glycan array binding signal (z-score) [50]: -0.154
glycan array binding signal (z-score) [51]: -0.114
glycan array binding signal (z-score) [52]: -0.11
glycan array binding signal (z-score) [53]: -0.106
glycan array binding signal (z-score) [54]: -0.164
glycan array binding signal (z-score) [55]: -0.149
glycan array binding signal (z-score) [56]: -0.159
glycan array binding signal (z-score) [57]: -0.128
glycan array binding signal (z-score) [58]: -0.04
glycan array binding signal (z-score) [59]: -0.083
glycan array binding signal (z-score) [60]: -0.093
